# Measurements: the RNAGym collection of RNA variant scans (doi:10.7554/elife.90254)
# The source gives no read counts; variants with many changes may rest on few reads.
# B1: LINE1-mini (parent)
# chain: GGCAGAGCUCAACACAGCGUGGCAAAGUGGCUGUGGCUAGACUGCC
# Variants of: B1
# Assay: self-cleavage, relative activity (ratio to wild type); higher = more cleavage; in vitro, sequencing; the parent is a self-cleaving ribozyme
row,Variant,self-cleavage
1,GGCAUAGCUCAACACAGAGUGUCAAUGUGGCUGUGGCUAGACUGCC,0.05
2,CGCAGAGCUAAACACAGUGUGGCAAAGUGGCUGUUGCUAGACUGCC,0
3,GGCAGAGUUCAACAAACCGUGGCAAGUUGCCUGUGGCUAGACUGCC,0.02
4,GGCAGAGCUCAACACAGCGUGGCAAAAUUGCUGUAGCUAGACUGCC,0.18
5,GGCAGAGCUCAACUCAGCGUGGCAAAUAUGCUGUAGCUAGACUGCC,0.54
6,GGCAGAGCUGAACACAACGUGGCAAAGUGGCUGUGUCUAGACUGCC,0.02
7,GGCAGAGCUCAACACAGCGUGGCAAAAUGGCUCUGGCUAUACUGCC,0.05
8,GGCAGAGCUCAACACAGCUUGGCAAAGUGGCUGUGGCUCGAGUGCC,0.13
9,GGAAGAGCUCAACAUAGCGUUGCAAAGUGCCUGUGGCUAGACUGCC,0.17
10,GGCAGAGCUUAACACAGCGUGUCAAAGUGGCUGUGGCUAGACUGAC,0.05
11,GGCAGAGCGCAACACGGCGUGGCAAAGUAGCUGUGGCUAGACUGCC,0.05
12,GGCAGAGCUCAACACGGCCUGGCAAAGUCGCUGUGGCUAGCCUGCA,0.02
13,UGCAGAGUUCAACACAGCAUGGCGCAGUGGCUGUGGCUAGACUGCC,0.08
14,AGCAGAGCUCAACACAGAGUGGCAAAGUGGCUGUGGCUAGACUGUC,0.35
15,GGGAGCGCUCAACACACCCUGGCCAUGUGGCUGUGGCUAGACUGCC,0.12
16,GGCAGAGCUCAACACAGCGAGGCACAGUGGCUGUGCCUAGAGUGCC,0
17,GGCUGAGCUGAACACAGCGUGGCAAAGUGGCUGCGGCUAGACUGCC,0.02
18,GGCAGAGCUCAACACAGGGUGCCAAAGUGGCCGUGGCUAGACUACC,0.07
19,GGCAGAGCUCAACACAGAGUGGCAAAUUGGCUGUGGCUAGACCGCC,0.02

row,Variant,self-cleavage
1,GGCAGAGCUCAACACACCGCGGCAAAGUGACUGUGGCUAGAUUGCC,0.13
2,GGCAGAACUCUACACAGCGUGGCAAAUUGGCUGUGGAUAGACUGCC,0.04
3,GGCAGAGCUCAUCACAGCGUGGCAAAGUGGCUGUGGUUAGACUUCC,0.01
4,GGAAGAGCUCAACACAGCCUGGUAAAGUGGCUAUGGCUCGAAUGCC,0.08
5,GGCAGAGCUCAACACAGGGUGCCACAGCGGCUGUGGCUAGACUGUC,0.22
6,GCCAGAACUCAACACAGCAUGGCAAAGUGGCUAUGCCUAGACUGCC,0.07
7,GGAAGAGCUCAACACAGCGUGGCAAAGUGGGUGUGGCUAUUCUGAC,0.01
8,GGCAGAGCUCAACACAGCGUCGCACAGUGGCUGAGGCUAGACUGCC,0.18
9,CGCAGAGCUUAACACAGCGUGGCAAAGUGGCUGUGGCUCGAUUGCC,0
10,GGCAGAACUCAACACAGCGUGGCGAAGUGACUGUGGCUAGACUGCC,0.37
11,GGCAGAGCUCCACACAGCGUGGCAAAGUGGCUCUCGCUAGACUGCC,0.03
12,GGCAGAGCUGAAAACAUCGUGGCAAAGUGGCUGUUGCUAGACUGCC,0.01
13,GGCAGAGCGCAUCACAGCGUGGCAAACUGGCUGUCGCUAGACUGCC,0.01
14,GGCUGAGCUCAACACAGCGUGUCAAAUUGGCUGUGGCUAGACUGCC,0.25
15,GGCAAAGCUCAACACAGCGUGGCAAAGUGUCUGUCGCGAGACUGCC,0.05
16,GGCAGAGCUUAACACAGUGUGGCAAAGUGGCUGUGGCUAGACUUCC,0.15
17,CGCACAGCUCAACACAGCGUCGCAAAGUGGCUGUGGCUUGACUGCC,0.02
18,GGCUGAGUUCAACACAGCAUGGCAAAGUGACUGUGGCUAGACUGCC,0.14
19,GGCAGAUCUCAACGCAGCGUGGCAAAGUGGUUCUUGGGAGACUGCC,0

row,Variant,self-cleavage
1,GGCAGAGCUCAACACAACGUCGCAAAAUGGCUGUGGCUCGACUGCC,0.19
2,GCCAGAGCUCACCACAGCGUGGCAAAGUGUCUGUGGCUAGACUGCC,0.02
3,GCCAGAGCUCAACAUAGAGUGGCAAAGUGGCUCUGGGUAGACUGCC,0.06
4,GGUAGAGCUCAACACAGCGUGACGAAGUGGCUGUGGCUCGACUGCC,0.03
5,GGCAGGGCUCAACACAGCGUGGCUAUCUGGGUGUGGCUAGACUGCC,0.05
6,GCCAGAGCUCAACACAGCGUGGCAAAGUGGCAGUGGCUAAACUGCC,0
7,GGCAGAUAUCAACACAGCGUGGCUAAGUGGAUGUGGCUAGGCUGCC,0.18
8,GGAAGAGCUUAACACAUCGUGGCAAAGUGCCUGUGGCUAGACUGCC,0.1
9,GGCAGAGCUCAACAGAGCGUGUCAACGUGGCUGUGGGUAGACUGCC,0
10,GGCAGAGCGCAACCCAGCGUGGCAAAGUGGCUGUGGCUAUACUGCC,0.02
11,GGCAAAGCUCAACACAGCUUGGCUAAAUGGCUGUGGCUAGGCUGCC,0.03
12,GGCACAGUUUAACCCAGCGUGGGAAAGUGGCUGUGGCUAGACUGCC,0.03
13,GGCAGAGGUCAAUACAGCGUGGUAAAGUGGCUGAGGCUAUACUGCC,0.02
14,GGAAGAGCUCAACACAGCGUGGGAAAGUGGCUGUGCCUAGAUUGCC,0.79
15,GGCAGAGCUCAACACAGCGUGGCAACGUGGCUAUGGCUAGAGUACC,0.09
16,GGCAGAGCACAACACAGCGUGGCAAAGUGGCUAUGGCUAGACUGUC,0.13
17,GGCAGAGCUCAACACAGCGUGGCAAAGUGGUUGUGGAUAGGCUGCC,0.05
18,GGCAGAGCUCAACACAUCGUGGCAAAGUGGCUGUGGCUAGACUGGG,0.02
